# Laboratory results published in the supplement of paper PMC11417369.
# ± gives the standard deviation of the averaged measurements. This is one part of the list.
# Test system: PfAP2-G AP2 domain (GST-tagged)
# Test: gcPBM binding intensity (ln(normalized median fluorescence intensity)); higher = stronger DNA binding
# Procedure, shortened: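 GST-tagged P. falciparum DNA-binding domains, expressed in E. coli (about 25 μg on average), were applied for 1 h to an Agilent 4 × 180k array of primer-extended double-stranded 36-bp intergenic genomic probes plus negative controls. The binding buffer was 1× PBS with 1% milk, 0.2 mg/ml BSA, 0.5% salmon testes DNA and 0.03% Triton X-100. Bound protein was detected with Alexa488 anti-GST antibody and scanned at 488 nm. Binding intensity is the highest Masliner-normalised natural-log median intensity across replicate spots of either probe orientation.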
row,Sequence,gcPBM binding intensity (ln)
1,TATGATTTTAACAACTGTACAATATAATAAATCTAA [XGTACX_site2198],11.1 ± 0.79
2,GAAAAAGACAAAAGGTGTACAATATGAAATATATAT [XGTACX_site373],11.5 ± 0.86
3,ATATTATGATCTATTTTTATATTCTATTTGATAAAT [CACACA_negctrl_site1070],9.795 ± 0.035
4,GTTCACCAAAGGTAACGTACACAAACATATATATAT [XGTACX_site1073],11.4 ± 0.93
5,TATACAATATATTTTGGTACACAAACAAAAAAATAT [XGTACX_site2522],11.2 ± 0.82
6,ATTAAAAGAACCAAGTGTACATTCTATATATAAAAA [XGTACX_site4260],11.1 ± 0.69
7,TATATATATATTATATGTACATAAATATTTATACTC [XGTACX_site114],11.2 ± 0.71
8,TTGATAAAATGGGAGAAATTAAAAAGGAAAAAAAAA [CACACA_negctrl_site1279],9.87 ± 0.12
9,CTATTTTATATGTGCACACATATACACCCACAAATA [CACACA_site1131],10.8 ± 0.57
10,TTATAAAATTTTCTTCTATATTTTAATTATTCTCAT [TGCATGCA_negctrl_site571],9.68 ± 0.2
11,TAATTCTAAATAAATGTACACACAAAAATAAATGTA [CACACA_site8509],11.4 ± 0.88
12,AATTTATAAGAATATTGTACGTTTAATATATTGTAA [XGTACX_site7553],11.2 ± 0.67
13,ATTCTAATAGATAGTAGTACCTATAAGTTTTCTTTT [XGTACX_site2315],10.9 ± 0.52
14,GTTGTCCCCCTTTCTATGCACACTTTAAATTATTCA [CACACA_site52],11.4 ± 1.1
15,TATGTGTTCAGTATTGCACACACACTCCAAAATAAA [CACACA_site8018],10.4 ± 0.34
16,ACTTCATTTTATAAGTGTACATAATTTGTTTATATA [XGTACX_site5453],11.5 ± 0.85
17,ATAAATACTAGGCACACACACATATAGATTTATATA [CACACA_site7064],10.2 ± 0.13
18,AAAATAATAATTAAATAATAGTAAATGAAAAATAAA [CACACA_negctrl_site57],9.85 ± 0.13
19,AAGTTTATTATATATAAATTATTATATATATATATA [CACACA_negctrl_site189],9.91 ± 0.44
20,TTTATACATACATTCGTGCACATACGTATAACATAT,10.6 ± 0.38
21,ATATAAATATATGTATGTACACATTTTTTTTTTTTT [XGTACX_site247],11.4 ± 0.71
22,AGAATTATAAATTATAGTACATAAAATTTTGATGTA [XGTACX_site5726],11.2 ± 0.61

row,Sequence,gcPBM binding intensity (ln)
1,ATATCAACTGAATTGTATAGGCGATAAAAGAAAAAA [CACACA_negctrl_site1334],9.775 ± 0.021
2,CATGTGTGTATAATTTGTACATATACATAATAAATA [XGTACX_site2418],11 ± 0.61
3,CTAAACTAAACAAACTGTACACAAATAAAACAATAA [XGTACX_site8880],11.4 ± 1
4,AAACGATCTCGATGTTGTACACATTTATATAGAAAC [XGTACX_site4373],11.5 ± 0.85
5,TATACCTATAAATACACACACATATATAAATATGTA [CACACA_site6625],9.92 ± 0.16
6,TCCTTAAAAATCTAAAAAGAAAAAAACATATATTTT [GTGCAC_negctrl_site123],9.565 ± 0.092
7,ATTATTATATATATAACACACATAATTATATACTTA [CACACA_site1563],9.9 ± 0.042
8,AAGTCAATTTTTTTTTTTTTTTTTTAACTTATTAAT [TGCATGCA_negctrl_site14],9.605 ± 0.078
9,GATCACTGAATAAAGGCACACATCTGACTAATTTTT [CACACA_site66],9.935 ± 0.007
10,AAATAAAAACCATATCGTACAAAAATTTTTGTATTT [XGTACX_site7497],10.7 ± 0.24
11,ATATATATATATATATGTACTTAAAAATTTGTTTTG [XGTACX_site1514],11.2 ± 0.86
12,AATGTATATAATATTAATATGTAAATATATAATCAA [CACACA_negctrl_site1683],9.78 ± 0.15
13,TTAAAAAGTGCGTAGTGTACTAATATAAATAATACA [XGTACX_site2922],11.3 ± 0.88
14,TGAATAAATATATATACACACCCATATATATATATA [CACACA_site8833],10.1 ± 0.57
15,AAAAAAATAACAAAATGTATACAATATAACAAAAAT [GTGCAC_negctrl_site512],9.98 ± 0.028
16,TTTAAAAATTAATTCTGTACACATTTTTATTTTATT [XGTACX_site8],11.5 ± 0.8
17,TTCTTTCTTCAAAAGTGTACCAAATGTTAGAAAGGT [XGTACX_site4353],11.2 ± 0.77
18,ATATATATATATATGTGTACACAACAAAATAAAAAA [XGTACX_site7378],11.7 ± 0.79
19,AACATATACCCAGGTACATGCAAATATATATATTAT [TGCATGCA_site878],10.8 ± 0.52
20,TTTTCTTTTTTCTGTTGTACTAAAAATAATTTTGTA [XGTACX_site5171],11.3 ± 0.87
21,TATTTATATATTATGTGTCCACATGTAAGCTATCTT [XGTACX_site3887],11.2 ± 0.71
22,CCACTAATAAATATTACACACATATATATATATATT [CACACA_site3128],10 ± 0.16
